“And” between values parts separate entries of the source, which are not always exact repeats. Equal entries are not always repeated. The whole screen tested about 110,000 compounds, of which about 230 (0.21%) showed an effect of 50% or more. The list shows a part of the results.
These molecules were tested against DPAP1 (Plasmodium falciparum, UniProt Q8IIJ9) (assay: primary screen, percent inhibition; read by cleavage of a fluorogenic dipeptide substrate; higher = more effect of the substance).
DPAP1, sequence (Q8IIJ9 whole entry, looked up): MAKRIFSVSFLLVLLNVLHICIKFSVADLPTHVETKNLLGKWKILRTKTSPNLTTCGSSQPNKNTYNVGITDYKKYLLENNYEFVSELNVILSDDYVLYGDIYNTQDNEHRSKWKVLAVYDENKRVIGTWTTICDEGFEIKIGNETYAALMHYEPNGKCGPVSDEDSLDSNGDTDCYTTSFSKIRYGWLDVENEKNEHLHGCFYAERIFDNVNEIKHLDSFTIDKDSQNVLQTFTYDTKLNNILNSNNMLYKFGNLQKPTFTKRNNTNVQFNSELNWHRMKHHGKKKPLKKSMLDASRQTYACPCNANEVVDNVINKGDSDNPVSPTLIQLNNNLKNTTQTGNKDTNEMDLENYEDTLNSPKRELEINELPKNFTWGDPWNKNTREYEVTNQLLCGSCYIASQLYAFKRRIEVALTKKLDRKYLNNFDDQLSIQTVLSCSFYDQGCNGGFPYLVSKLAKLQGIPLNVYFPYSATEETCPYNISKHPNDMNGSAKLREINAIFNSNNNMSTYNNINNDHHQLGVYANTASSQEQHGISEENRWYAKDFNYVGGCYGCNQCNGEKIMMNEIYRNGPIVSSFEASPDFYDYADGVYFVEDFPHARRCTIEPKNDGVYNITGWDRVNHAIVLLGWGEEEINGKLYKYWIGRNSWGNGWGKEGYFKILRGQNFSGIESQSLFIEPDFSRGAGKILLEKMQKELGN
Parameters: species or system P. falciparum D10 trophozoite lysates; single well
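Further: 30 min substrate incubation versus DMSO and 10 µM JCP410 controls.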

| SMILES | % Inhibition @ 10 uM |
| --- | --- |
| CCCCC(=O)NC1(C(F)(F)F)NC(=O)N(C(C)c2ccccc2)C1=O (stereo not shown) | 0.221% |
| O=C(Nc1ccc(N2CCOCC2)cc1)c1sc2ccccc2c1Cl | -4.03% |
| CC1CC(C)CN(CCCn2cnc3c4ccccc4nc-3c2O)C1 (stereo not shown) | -0.0235% |
| CC(C)C(NC(=O)c1ccc(N(C)S(C)(=O)=O)cc1)C(C)C | 2.48% |
| Cc1ccc(Nc2nc(-c3ccccc3)cs2)cc1 | -5.44% |
| COc1ccc(CCNC(=O)c2nnc(Cc3ccc(Cl)cc3Cl)o2)cc1OC | 10.5% |
| CCOC(=O)N1CCN(C(=O)c2ccc3c(c2)sc2nc(-c4ccc(F)cc4)cn23)CC1 | -5.15% |
| O=C1N=C(N2CCCC2)S/C1=C/c1cccc(Cl)c1 | 3.53% |
| C=CCNC(=O)c1ccccc1NC(=O)CN(c1cc(C(F)(F)F)ccc1Cl)S(C)(=O)=O | -8.58% |
| Cc1ccc(CCN2CC(C(=O)NC(C)C)CC2=O)cc1 (stereo not shown) | 1.62% |
| Cc1ccc(OCC(=O)N2CCN(c3ccccn3)CC2)c(Br)c1 | -5.08% |
| Cc1cc(O)nc(Nc2nc(C)c3cccc(C)c3n2)n1 | 7.54% |
| Cc1cc(C)nc(Nc2nc(-c3ccc(O)c(O)c3)cs2)n1 | 0.627% |
| Cc1ccc(S(=O)Cc2ccc(C(=O)NCc3ccco3)o2)cc1 (stereo not shown) | -3.09% |
| CC(CCN1CCC(C(N)=O)CC1)c1ccccc1 (stereo not shown) | -0.274% |
| CCOC(=O)c1conc1-c1ccc(OCC)cc1 | -2.18% |
| Cc1ccc(C2=CC(c3ccccc3OC(F)F)n3ncnc3N2)cc1 (stereo not shown) | -8.88% |
| CCCC/N=c1\sc(C(=O)OC)cc(=O)n1CCCC | -1.7% |
| Cc1nc2ncnn2c(C)c1CCC(=O)NC(C)CCc1ccccc1 (stereo not shown) | -0.465% |
| O=[N+]([O-])c1ccc(CN2CCCCCC2)s1 | 4.67% |
| CC(C)(C)c1ccc(C2=N/C(=C\c3ccccc3F)C(=O)O2)cc1 | -8.77% |
| CC(C)OCCCNC(=O)c1csc2c1CCCCC2 | -5.05% |
| Cc1nn(-c2ccccc2)c(C)c1C(=O)N1CCN(C23CC4CC(CC(C4)C2)C3)CC1 | 3.24% |
| O=C(CC1Sc2ccccc2NC1=O)Nc1cccc(Cl)c1 (stereo not shown) | -2.56% |
| COC(=O)CCN1CCN(c2ccc(Cl)cc2)CC1 | -8.85% |

| SMILES | % Inhibition @ 10 uM |
| --- | --- |
| Cc1cccc(Nc2nc(-c3ccncc3)cs2)c1 | 0.345% |
| N#CC1(c2ccc(OCc3ccccc3)cc2)CCC(=O)N1c1ccccc1 (stereo not shown) | -3.83% |
| CC(=O)NC(C)Cc1c(C(=O)O)[nH]c2ccccc12 (stereo not shown) | 0.343% |
| CCO/C(O)=C1\C(CC)=NC2=C(C(=O)CCC2)C1c1ccc(OC)cc1OC (stereo not shown) | -6.74% |
| COc1cccc(OC)c1C(=O)N1CCc2ccccc2C1 | -0.636% |
| COc1ccc(/C=C2/N=C(c3cccc4ccccc34)OC2=O)cc1OC | 0.997% |
| CCc1ccc(CNc2nc(N)n(-c3ccccc3)n2)cc1 | 1.83% |
| Cc1nc2cc(-c3ccccc3)nn2c(C)c1CC(=O)O | 2.39% |
| CCOc1ccc(CC(=O)NCc2ccccc2)cc1OCC | -0.473% |
| Cc1ccnc(NS(=O)(=O)c2ccc(NC(=O)c3c(-c4ccccc4)noc3C)cc2)n1 | 5.39% |
| C=CCOc1ccc(/C=C2\NC(=O)N(Cc3ccc(Cl)cc3)C2=O)cc1 | 3.8% |
| Cc1ccc(-c2nc3cc(N)ccc3o2)cc1C | 0.35% |
| COc1ccc(-c2cc(C3CC3)nc(N)c2C#N)cc1 | 4.51% |
| CC1=CC(C)C2(COC(c3ccc[n+](C)c3)OC2)C(C)C1 (stereo not shown) | -1.33% |
| COc1ccc(OCC(=O)N2N=C(C)CC2(O)C(F)(F)F)cc1 (stereo not shown) | -2.32% |
| COC(C(=O)NCc1cccnc1)c1ccccc1 (stereo not shown) | -1.02% |
| CCS(=O)(=O)c1nc(S(=O)(=O)c2ccc(C)cc2)c(NCCCn2ccnc2)s1 | -2.25% |
| CC(C)c1ccc(NC(=O)C2CCCCC2C(=O)O)cc1 (stereo not shown) | -0.969% |
| C(#Cc1ccccc1)CN1CCOCC1 | -3.32% and -1.97% |
| CSCCC(Nc1ncnc2sc3c(c12)CCCC3)C(=O)O (stereo not shown) | -2.7% |
| CC(=O)N1CCN(CCCCCCC=C(C)C)CC1 | -3.57% |
| Nc1cccc(-n2nncc2C23CC4CC(CC(C4)C2)C3)c1 | 2.05% |
| Cc1cc(C)c(C#N)c(SCC(=O)Nc2ccc(S(=O)(=O)Nc3onc(C)c3C)cc2)n1 | -2.77% |
| CC1=C(C(=O)Nc2ncccc2C)C(c2cccc(Cl)c2Cl)C2=C(O)CCCC2=N1 (stereo not shown) | -6.36% |
| CCOC(=O)C1=C(N)OC2=C(C(=O)CC(C)(C)C2)C1c1cc(CSc2nnnn2C)cs1 (stereo not shown) | 1.84% |

| SMILES | % Inhibition @ 10 uM |
| --- | --- |
| COc1cc2c(NCc3ccccc3)cc(O)c(CC(=O)Nc3ccccc3)c2cc1OC | 66.3% |
| O=C(N[C@@H](Cc1ccc2ccccc2c1)C(=O)N[C@@H](CCc1ccccc1)C(=O)CO)C1CCNCC1 | -5.64% |
| Cc1cc(Cl)ccc1OCC(=O)Nc1ccc(F)cc1 | 0.316% |
| CC(C)(C)CC(=O)Nc1sc2c(c1C#N)CCCCC2 | 2.26% |
| COc1ccc(-c2cn(/N=C/c3ccc(Cl)cc3Cl)c(N)n2)cc1 | -0.441% |
| Cc1ccc(-n2cnc3cc(NC(=O)c4ccco4)ccc32)cc1 | 0.13% |
| CC(NC(=O)c1ccccc1OCC(=O)N1CCc2ccccc21)c1ccccc1 (stereo not shown) | 0.245% |
| N#Cc1ccc(Oc2ccc(NC(=O)c3ccccc3Cl)cc2)cc1 | 4.54% |
| Cc1ccc(C(O)c2coc3ccc(O)c(CN(C)C)c23)cc1 (stereo not shown) | 0.774% |
| CS(=O)(=O)N1CCCC(C(=O)NCCN2CCC(Cc3ccccc3)CC2)C1 (stereo not shown) | 3.79% |
| Cc1ccc(Cl)cc1NC(=O)Cn1cnc2c1c(=O)n(C)c(=O)n2C | -3.69% |
| Cc1ccc(-n2ncc3c(NCCCOC(C)C)ncnc32)cc1C | 4.15% |
| O=C(NCCc1ccccc1)C(F)(F)C(F)(F)C(F)(F)C(=O)NCCc1ccccc1 | -5.36% |
| c1ccc(C2=NC(c3ccccc3)N=C(c3ccccc3)N2)cc1 | -7.01% |
| O=S(=O)(c1cccc(C(F)(F)F)c1)N(CCCN1CCOCC1)Cc1cccs1 | 5.03% |
| NC(=O)c1c(NC(=O)C2c3ccccc3Oc3ccccc32)sc2c1CCCC2 | -4.68% |
| Cc1cc(C(=O)NCC(C)c2ccccc2)c2c(C)nn(-c3ccccc3Cl)c2n1 (stereo not shown) | 5.32% |
| Cc1cc(C)cc(NC(=O)C2CC(=O)N=C(N)S2)c1 (stereo not shown) | -1.98% |
| CCOC(=O)c1c(C)[nH]c(C)c1S(=O)(=O)Nc1cccnc1 | 3.93% |
| Cc1cccc(-c2nc(CSCC(=O)NCCCN3CCOCC3)c(C)o2)c1 | 0.475% |
| Cc1ccc(-n2c(CNCc3ccc(F)cc3)nc3ccccc3c2=O)cc1 | -4.72% |
| CC(=O)c1nc(N2C(=O)CC(Cc3cc(C)cc(C)c3)C2=O)sc1C (stereo not shown) | 5.3% |
| Cc1ccc2onc(CNC(=O)NCc3ccc4c(c3)OCO4)c2c1 | 3.25% |
| CO/C(O)=C1/C(C)=Nc2ncnn2C1c1ccc(C)o1 (stereo not shown) | -2.9% |
| Cc1c(CO)c2ccccc2n1Cc1ccc(Cl)cc1 | 6.78% |

| SMILES | % Inhibition @ 10 uM |
| --- | --- |
| CCCn1c(NCc2nc3ccccc3n2C)nc2ccccc21 | -2.87% |
| Cc1cc2c(cc3c(SCc4nc(-c5ccccc5)oc4C)nncn32)o1 | 0.335% |
| CCCCCCNc1cc(C)oc(=O)c1C(C)=O | 4.57% |
| Cn1c(=O)c(SC2CCCCC2)c(O)c2ccccc21 | -1.24% |
| Cc1ccc(C)c(C(=O)N2CCC(c3nc(O)c4nnn(Cc5ccc(F)cc5F)c4n3)CC2)c1 | 14% |
| O=C(NCCc1ccccc1)C1c2ccccc2C(=O)N1Cc1cccs1 (stereo not shown) | 2.35% |
| c1ccc(CN2CCC(N3CCN(Cc4ccncc4)CC3)CC2)cc1 | -9.2% |
| CC(=O)N(c1ccccc1)C1CC(C)N(C(=O)C(C)C)c2ccccc21 (stereo not shown) | 0.331% |
| COc1ccc(Br)cc1C1C2=C(CCCC2=O)N(CC(=O)O)C2=C1C(=O)CCC2 | 1.89% |
| Cn1c(=O)c2ccccc2n2c(CCC(=O)N3CCC(Cc4ccccc4)CC3)nnc12 | 4.16% |
| C=CCNC(=O)CCCCn1c(=S)[nH]c2c([nH]c3ccc(OC)cc32)c1=O | 1.15% |
| COCCNC(=O)c1ccc(-c2nc(CS(=O)c3ccccc3)c(C)o2)cc1 (stereo not shown) | 4.12% |
| COc1ccc(NC(=S)NC(=O)c2ccco2)cc1 | 4.63% |
| Cc1ccc(C)c(S(=O)(=O)NC(=O)Cc2cccc3ccccc23)c1 | 4.22% |
| CCOC(=O)N1CCN(c2c(NCC3CCN(Cc4cccc(C)c4)CC3)c(=O)c2=O)CC1 | -1.44% |
| Cc1cc2c(c(=O)o1)C(c1ccc(Br)s1)C(C#N)=C(N)O2 (stereo not shown) | -3.77% |
| Cc1ccc(CS(=O)(=O)CCC(=O)N[C@@H](CCc2ccccc2)C(=O)c2nc3ccccc3o2)cc1 | -6.98% |
| CCCCN(CC)CCNC(=O)Cn1ncc2c3ccccc3nc-2c1O | 1.43% |
| COc1ccc(OC)c(NC(=O)COc2ccccc2)c1 | 3.8% |
| CCCCN1C(=O)C2Cc3c([nH]c4ccccc34)C(c3cccc(F)c3)N2C1=O (stereo not shown) | -0.0372% |
| CCOC(=O)c1c(NC(=O)Nc2nnc(N3CCCCC3C)s2)sc2c1CCCC2 (stereo not shown) | -4.68% |
| CCOc1ccc(CNC(=O)C2=C(C)C(=O)OC23CCN(C(C)=O)CC3)cc1 | -6.13% |
| O=C(NCCCCc1ccccc1)c1cccc(Br)c1 | -1.48% |
| CC(C)Oc1ccc(C(=O)Nc2ccc(N3CCN(C(=O)c4ccccc4)CC3)cc2)cc1 | -2.74% |
| CC1(C)Cc2c(sc3ncn4nc(-c5ccncc5)nc4c23)C(C)(C)N1 | 0.392% |

Reference: publication PMC6919601, “Identification of Plasmodium dipeptidyl aminopeptidase allosteric inhibitors by high throughput screening” (PLoS ONE, 2019)
